B1: CPEB3 Ribozyme (parent)
chain: UAACAGGGGGCCACAGCAGAAGCGUUCACGUCGCAGCCCCUGUCAGAUUCUGGUGAAUCUGCGAAUUCUGCUGUAUAUCUC

The source gives no read counts; variants with many changes may rest on few reads.

In this data set the parent is B1. Put plainly: self-cleavage, relative activity (ratio to wild type); higher = more cleavage; in vitro, sequencing. In short, it runs like this:
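Barcoded CPEB3 ribozyme mutants, produced by rounds of error-prone PCR, self-cleaved while being transcribed with T7 RNA polymerase for 5 hours at 37°C and during a subsequent 15 min DNase I step before EDTA was added. Sequencing of template-switched cDNA on Illumina gave cleaved and total reads, and DNA sequencing assigned barcodes to variants. Each variant's relative activity is its cleaved/total read fraction divided by the unmutated ribozyme's fraction, averaged across three batches. A variant needed a minimum of 5 reads.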
As to U1A A13U U31C A56G A77U U78C, the self-cleavage turned out to be 0.78.
As to U1A C11U A21G, the self-cleavage was determined as 0.37.
With U1A A5C U41C A56U the figure was 0.37; with U1A A35U U58C U76A U80A, 0.21; with U1A A20G U31A U54C U72C, 0.38.
The same measure for U1A A35U U43C C50A U60C U72A: 0.08; for U1A A3U A18G G24A U54C A56G: 0.
As to U1A A3G C37U U43G A64U, the self-cleavage turned out to be 0.48.
In the case of U1A A3C A47U A57U A64G, the self-cleavage came out at 0.69.
The same measure for U1A A3U U48C: 0.75.
Regarding U1A C23A A56G A64G U69C U80C, the self-cleavage amounted to 0.15.
The same measure for U1A A3G A20G U31C U41A U69C: 0.12.
In the case of U1A A35G G42U U67C U72C, the self-cleavage was 0.08.
With U1A A18G A28C A56G the figure was 0.4; with U1A A5G G9A U41A U69A, 0.21.
With U1A A20G A35G A47G U54C A64G the figure was 1.13; with U1A A5U G8A A18G U60C, 0.07; with U1A A2U A20U U43C U48C G55U, 0.18.
For the variant U1A A5G U43A, the self-cleavage is 0.71.
As to U1A A5U G19A, the self-cleavage stood at 0.56.
Consider U1A A2G A5U, for which the self-cleavage was 1.01.
The same measure for U1A A18C A21G U25C A28G U74C: 0.77; for U1A A47G A56G A57G U58C U74C: 0.88; for U1A A28U C38U U54C: 0.57.
As for U1A A3G A20U U26C U72C A75U, the self-cleavage was determined as 0.64.
With U1A A13U A21G U41A A57U C71U the figure was 0.05; with U1A A21G U72C, 0.55.
Regarding U1A A15G A20U A77U, the self-cleavage was found to be 0.11.
With U1A A56G U58C A64U the figure was 0.14; with U1A A20G A35G A56U, 0.63; with U1A A20U U43C U72C, 0.11.
As for U1A A20U A64G U69C, the self-cleavage amounted to 0.08.
With U1A C11U G63C U72A the figure was 0.12.
With U1A A18C A75G the figure was 0.36.
On to U1A A18C U26C A35G U43C U51C, for which the self-cleavage turned out to be 0.05.
The same measure for U1A A15U U25C U51A U72G: 0.35; for U1A A13G A45G A47G A56G U60A: 0.36.
On to U1A A35U A56G, for which the self-cleavage turned out to be 0.18.
With U1A A28G U51C G61C the figure was 0.1.
With U1A A18U A35G A56C U69C the figure was 0.38; with U1A A18U U51C C59G A64U, 0.18.
Turning to U1A A2G C11G A13U U54A, the self-cleavage was 0.78.
With U1A C11A U25C U51A the figure was 0.08.
On to U1A A15G U69C, for which the self-cleavage was 0.35.
On to U1A A2G U31A U48C U74C, for which the self-cleavage is 0.15.
Regarding U1A A2C U25A U41C U67A, the self-cleavage turned out to be 0.08.
Take U1A A5G C11U A56U U60A A75U: the self-cleavage turned out to be 0.12.
The same measure for U1A A21U A57G A64G: 0.36; for U1A A35G A64G: 1.23; for U1A A21G A28G U31C U72G A75C: 0.03.
For the variant U1A A5U G9U C71U U80C, the self-cleavage was determined as 0.59.
For the variant U1A A21G A35G U51A A65G, the self-cleavage amounted to 0.5.
For the variant U1A A3G A15C A64U, the self-cleavage was 0.31.
The same measure for U1A A13G A15G A21G: 0.34.
For the variant U1A A28G C39A U54C, the self-cleavage is 0.19.
U1A A13U G22A U31A A35G A45C U48C: the self-cleavage is 0.06.
Turning to U1A A20C A45G A56G, the self-cleavage turned out to be 0.35.
For the variant U1A A3G A28G C32A U41C, the self-cleavage was found to be 0.09.
As to U1A A47G U49A, the self-cleavage turned out to be 0.24.
The same measure for U1A A35G G70A U74C: 1.25; for U1A A2G A5U A15U U25C U49A U78A: 0.13; for U1A A3G C29U A45U A64U: 0.13.
With U1A C12U U25C A47U G52A U67G U69C the figure was 0.05; with U1A A13U U26A U31C U41C G46U A56U, 0.15.
On to U1A A3C U72A, for which the self-cleavage amounted to 1.22.
Consider U1A C23G U76C A77U, for which the self-cleavage worked out at 0.21.
With U1A A13U G46C A47G U51A A56G, the self-cleavage was 0.07.
On to U1A A15G A28G G33A A35G, for which the self-cleavage was found to be 0.13.
Regarding U1A A13G A21G A28C A65G U80A, the self-cleavage was determined as 0.08.
As for U1A A64G G73A, the self-cleavage came out at 1.24.
As to U1A A13G U41C A65G, the self-cleavage was 0.26.
Regarding U1A A57G A75G, the self-cleavage was determined as 0.57.
With U1A A18G A35G U72C U78A, the self-cleavage came out at 1.29.
The same measure for U1A A2C A35G G52A: 1.23; for U1A A2G U25G A57G U80C: 0.94; for U1A C11U U41A G42C C62U G73A: 0.06.
Consider U1A C4G A75U, for which the self-cleavage turned out to be 1.25.
As for U1A C11U G16U A18U U66C, the self-cleavage is 0.08.
With U1A A15G A45G U72C, the self-cleavage stood at 0.93.
Consider U1A A20G A21G U78A, for which the self-cleavage turned out to be 0.51.
With U1A A3C C4A A5G A18U G61A U78C the figure was 0.17; with U1A A21U U26A U69C, 0.09.
Take U1A A35C C40U A45U A56C A75U: the self-cleavage turned out to be 0.15.
The same measure for U1A A20G U60C U72C U78C: 0.32.
With U1A A3U C23G, the self-cleavage was determined as 0.14.
The same measure for U1A A3U A18C U41A U60C A77G U80A: 0.15; for U1A A2U U26C U60C: 0.38.
For U1A C12U G19U A57U U66C, the self-cleavage turned out to be 0.11.
For the variant U1A A3U A21G U67C U78C, the self-cleavage was determined as 0.26.
With U1A A13U U41C A47U U58C U67A the figure was 0.21.
In the case of U1A A21G U41C U43A U74C, the self-cleavage came out at 0.5.
In the case of U1A A2U C32U U58C C62U G73A, the self-cleavage worked out at 0.19.
In the case of U1A A15C A18U G33A U80A, the self-cleavage is 0.17.
With U1A A3C U26C U69C the figure was 0.31; with U1A A3G A35G U49C U69C, 0.95.
Take U1A A56G A75G: the self-cleavage is 0.6.
With U1A A21G A45G A56G A64C the figure was 0.2; with U1A A5G A20U G53A A77G, 0.43.
On to U1A C12U A13G A20G A47G, for which the self-cleavage amounted to 0.36.
U1A A20G A56G: the self-cleavage turned out to be 0.41.
With U1A A2G G9U A18U U25A A45G the figure was 0.14; with U1A A13G A28G G42A, 0.25.
The same measure for U1A A2G A45G A56U U58C U67A: 0.19; for U1A C11G A20G A28G U31A C39U U49C: 0.02; for U1A A2C G9A U25A C32A U58C: 0.19.
The same measure for U1A A5G A13G A18U A57G A77G: 0.22.
For U1A A13C A15G U25A, the self-cleavage came to 0.11.
The same measure for U1A C23A U51A A56U U60A: 0.05; for U1A A2G A20G: 0.69; for U1A A35G A64G A65G: 0.58.
The same measure for U1A A13G G19A C34A A45G U69C U72A: 0.06; for U1A A2G A21G A47G A65G U78A: 0.27; for U1A A28G A56G C68U: 0.17.
With U1A C4A G9C A18G G30A U69C U74C the figure was 0.06; with U1A A20G U31A G33A C39U, 0.28.
Regarding U1A A15U C59U U69C U72C U78C, the self-cleavage stood at 0.12.
For U1A A35U U69A, the self-cleavage came to 0.33.
With U1A C11U A28G U72A U80C the figure was 0.46; with U1A A20C U51A, 0.38; with U1A A15G G16U U25C U41C A65G U66C, 0.16.
With U1A A35G C50U A64U the figure was 0.88.
With U1A A13G U43G A64U U72A A75G U78C the figure was 0.03; with U1A A18U A21G U31A C39U U72C U76C, 0.09; with U1A A5C U26C U54A U58A A64U, 0.13.
Consider U1A A13U U66C, for which the self-cleavage was 0.54.
With U1A A47G A57C U74C the figure was 0.37; with U1A C29G U67A, 0.08.
The same measure for U1A A15G A35U U80C: 0.49; for U1A C4U A13U U41C C71A: 0.62; for U1A A2U U78A U80A: 1.13.
The same measure for U1A A21G G24U A28G U58G U72C: 0.07; for U1A A28C G53U G61U: 0.25.
Turning to U1A C12U A21G U25C A28G U74C, the self-cleavage stood at 0.03.
The same measure for U1A A2G C14U A18G A65G: 0.25; for U1A A13G A15G U26A A56G A65U U72C: 0.12; for U1A A47G U78C: 0.91.
With U1A A20U A56G A64G U72A, the self-cleavage was 0.11.
With U1A A18U U26A U41A the figure was 0.28; with U1A A15U U25C U43A U49C, 0.11; with U1A A18G U25C C27U U60C C62A, 0.06.
As to U1A A21G U41C, the self-cleavage stood at 0.58.
In the case of U1A A45G U51A, the self-cleavage came out at 0.54.
The same measure for U1A A3G A45G G70A U78C: 0.73; for U1A A65G U72C: 0.25.
U1A A18U U43C G46A U49C U54C U69C: the self-cleavage came to 0.09.
With U1A A13G U31C U49C U74A the figure was 0.32; with U1A A5U C29U U31C, 0.45.
With U1A A3U U25C U69C U72C the figure was 0.09.
With U1A A18U G19C U41C U80C, the self-cleavage is 0.4.
The same measure for U1A A15C A21G U25A U54A U60C U78C: 0.08.
The same measure for U1A A2G U49C U76A: 0.26.
On to U1A C11U U25C, for which the self-cleavage turned out to be 0.23.
U1A A21G C27A U48A U78A: the self-cleavage was found to be 0.09.
As to U1A A45U U58G U60A, the self-cleavage amounted to 0.21.
On to U1A A35G A57G U60C, for which the self-cleavage was 0.8.
Take U1A A5U U41G G46A U54C A57G: the self-cleavage was found to be 0.24.
For U1A A13U A18G U69A, the self-cleavage was 0.89.
The same measure for U1A A3G U69C U78A: 0.76; for U1A A20G A35G U54C U72C U76A A77G: 1.19; for U1A A15G U54A: 0.81.
With U1A C11U U31G A45U U80C the figure was 0.06; with U1A A5U G30A C68U U72A U80C, 0.12; with U1A A28U U69G, 0.52.
The same measure for U1A A20U A21U U48C A64G: 0.1.
In the case of U1A A21G C29U C40U A45G, the self-cleavage was found to be 0.08.
As to U1A A20G A28G U41A, the self-cleavage was determined as 0.08.
With U1A A20U A77U the figure was 0.21.

Values taken from the RNAGym collection of RNA variant scans (doi:10.1093/nar/gkz1192).
